Like-named read-outs stand apart in the source and are kept apart here.
Test system: Patients undergoing elective colonoscopy
Details: for Time after start of procedure until mean Modified OAA/S scores fell below 2: FIG. 3; for Time to Procedure Start, Mean / Time to Procedure Start, Median: from first administration to start of colonoscopy; for Time to Fully Alert, Mean / Time to Fully Alert, Median / Time to Fully Recovered, Mean / Time to Fully Recovered, Median / Time to Ready for Discharge, Mean / Time to Ready for Discharge, Median: from withdrawal of colonoscope
[1] = Example 1B initial portion, patients between 75 and 80 kg dosed with 980 mg (28 mL)
[2] = Example 1B, 630/700 mg, 805 mg and 980-mg dose groups
[3] = Example 1B, initial bolus dose 805 mg
[4] = Example 1B, initial bolus dose 910 mg
[5] = Example 1B, initial bolus dose 980 mg
[6] = Example 1B, initial bolus dose 630/700 mg

CC(C)c1cccc(C(C)C)c1OCOP(=O)([O-])[O-].[Na+].[Na+] [propofol prodrug, O-phosphonooxymethyl propofol disodium salt]
Adverse respiratory finding (oxygen saturation <90%) [1]: mild hypoxemia
MOAA/S of more heavily sedated subjects [1]: < 2
Time after start of procedure until mean Modified OAA/S scores fell below 2 (Example 1B, initial bolus dose of 805 mg): ≤ 6 min
Time after start of procedure until mean Modified OAA/S scores fell below 2 (Example 1B, initial bolus dose of 980): ≤ 4 min
Percent of time patients remained within Modified OAA/S scores of 2, 3, or 4 from procedure start to procedure end (Example 1B, FIG. 4B, 630/700 mg doses): 87.5%
Percent of time spent at Modified OAA/S scores of 1 or 0 (Example 1B, FIG. 4B, initial bolus dose 805 mg): 31.0%
Percent of time spent at Modified OAA/S scores of 1 or 0 (Example 1B, FIG. 4B, initial bolus dose 910 mg): 22.3%
Percent of time spent at Modified OAA/S scores of 1 or 0 (Example 1B, FIG. 4B, initial bolus dose 980 mg): 31.5%
Percent of time spent at Modified OAA/S scores of 1 or 0 (Example 1B, FIG. 4B, initial bolus dose 630/700 mg): 12.5%
Percent of time patients remained within Modified OAA/S scores of 2, 3, or 4 from procedure start to procedure end, range (Example 1B, FIG. 4B, initial bolus doses of 805, 910, and 980 mg): 61.9% to 67.3%
Mean Modified OAA/S scores during colonoscopy (Example 1B, 805 mg and 980 mg groups): below 2
Median time to fully alert, range over dose groups [2]: 12.0 to 12.5 min
Median time to fully recovered, range over dose groups [2]: 18.0 to 20.0 min
Median time to ready for discharge, range over dose groups [2]: 35.0 to 37.0 min
Percent of patients who required one supplemental dose to start the procedure (Example 1B, 805-mg group): 12.5%
Percent of patients who required one supplemental dose to start the procedure (Example 1B, 910-mg group): 23.5%
Number of Patients administered a total of 1 dose (initial plus supplemental) (Example 1B, All Patients): 38
Number of Patients administered a total of 2 doses (initial plus supplemental) (Example 1B, All Patients): 14
Number of Patients administered a total of 3 doses (initial plus supplemental) (Example 1B, All Patients): 6
Number of Patients administered a total of 4 doses (initial plus supplemental) (Example 1B, All Patients): 4
Number of Patients requiring 1 dose to allow start of procedure (Example 1B, All Patients): 56
Number of Patients requiring 1 supplemental dose to maintain sedation throughout the procedure (Example 1B, All Patients): 15
Number of Patients requiring 2 doses to allow start of procedure (Example 1B, All Patients): 6
Number of Patients requiring 2 supplemental doses to maintain sedation throughout the procedure (Example 1B, All Patients): 7
Number of Patients requiring 3 doses to allow start of procedure (Example 1B, All Patients): 0
Number of Patients requiring 3 supplemental doses to maintain sedation throughout the procedure (Example 1B, All Patients): 1
Number of Patients requiring 4 doses to allow start of procedure (Example 1B, All Patients): 0
Number of Patients requiring 4 supplemental doses to maintain sedation throughout the procedure (Example 1B, All Patients): 0
Time to Achieve Sedation (first Modified OAA/S score ≦4), Mean (Example 1B, All Patients): 2.7 min
Time to Achieve Sedation (first Modified OAA/S score ≦4), Median (Example 1B, All Patients): 2.0 min
Total Dose (mg) required during the entire procedure, Mean (Example 1B, All Patients): 982.8 mg
Total Dose (mg) required during the entire procedure, Median (Example 1B, All Patients): 980.0 mg
Time to Procedure Start, Mean (Example 1B, All Patients): 3.8 min
Time to Procedure Start, Median (Example 1B, All Patients): 3.0 min
Time to Fully Alert, Mean (Example 1B, All Patients): 12.5 min
Time to Fully Alert, Median (Example 1B, All Patients): 12.0 min
Time to Fully Recovered, Mean (Example 1B, All Patients): 22.1 min
Time to Fully Recovered, Median (Example 1B, All Patients): 20.0 min
Time to Ready for Discharge, Mean (Example 1B, All Patients): 40.3 min
Time to Ready for Discharge, Median (Example 1B, All Patients): 35.5 min
Percent of patients for whom the initial bolus dose was sufficient to start the procedure (Example 1B, all patients): 90.3%
Percent of patients who required 1 supplemental dose to maintain sedation (Example 1B, all patients): 24.2%
Percent of patients who required 2 supplemental doses to maintain sedation (Example 1B, all patients): 11.3%
Percent of patients who required at least 1 supplemental dose to maintain sedation (Example 1B, all patients): 37.1%
Percent of patients who required 3 supplemental doses to maintain sedation (Example 1B, all patients (one in the 910-mg group)): 1.6%
Number of Patients administered a total of 1 dose (initial plus supplemental) [3]: 8
Number of Patients administered a total of 2 doses (initial plus supplemental) [3]: 4
Number of Patients administered a total of 3 doses (initial plus supplemental) [3]: 3
Number of Patients administered a total of 4 doses (initial plus supplemental) [3]: 1
Number of Patients requiring 1 dose to allow start of procedure [3]: 14
Number of Patients requiring 1 supplemental dose to maintain sedation throughout the procedure [3]: 5
Number of Patients requiring 2 doses to allow start of procedure [3]: 2
Number of Patients requiring 2 supplemental doses to maintain sedation throughout the procedure [3]: 3
Number of Patients requiring 3 doses to allow start of procedure [3]: 0
Number of Patients requiring 3 supplemental doses to maintain sedation throughout the procedure [3]: 0
Number of Patients requiring 4 doses to allow start of procedure [3]: 0
Number of Patients requiring 4 supplemental doses to maintain sedation throughout the procedure [3]: 0
Time to Achieve Sedation (first Modified OAA/S score ≦4), Mean [3]: 2.5 min
Time to Achieve Sedation (first Modified OAA/S score ≦4), Median [3]: 2.0 min
Total Dose (mg) required during the entire procedure, Mean [3]: 945.0 mg
Total Dose (mg) required during the entire procedure, Median [3]: 875.0 mg
Time to Procedure Start, Mean [3]: 3.6 min
Time to Procedure Start, Median [3]: 3.0 min
Time to Fully Alert, Mean [3]: 12.2 min
Time to Fully Alert, Median [3]: 12.5 min
Time to Fully Recovered, Mean [3]: 20.3 min
Time to Fully Recovered, Median [3]: 18.0 min
Time to Ready for Discharge, Mean [3]: 41.8 min
Time to Ready for Discharge, Median [3]: 35.0 min
Number of Patients administered a total of 1 dose (initial plus supplemental) [4]: 8
Number of Patients administered a total of 2 doses (initial plus supplemental) [4]: 3
Number of Patients administered a total of 3 doses (initial plus supplemental) [4]: 3
Number of Patients administered a total of 4 doses (initial plus supplemental) [4]: 3
Number of Patients requiring 1 dose to allow start of procedure [4]: 13
Number of Patients requiring 1 supplemental dose to maintain sedation throughout the procedure [4]: 3
Number of Patients requiring 2 doses to allow start of procedure [4]: 4
Number of Patients requiring 2 supplemental doses to maintain sedation throughout the procedure [4]: 4
Number of Patients requiring 3 doses to allow start of procedure [4]: 0
Number of Patients requiring 3 supplemental doses to maintain sedation throughout the procedure [4]: 1
Number of Patients requiring 4 doses to allow start of procedure [4]: 0
Number of Patients requiring 4 supplemental doses to maintain sedation throughout the procedure [4]: 0
Time to Achieve Sedation (first Modified OAA/S score ≦4), Mean [4]: 3.7 min
Time to Achieve Sedation (first Modified OAA/S score ≦4), Median [4]: 3.0 min
Total Dose (mg) required during the entire procedure, Mean [4]: 1093.2 mg
Total Dose (mg) required during the entire procedure, Median [4]: 1085.0 mg
Time to Procedure Start, Mean [4]: 5.2 min
Time to Procedure Start, Median [4]: 4.0 min
Time to Fully Alert, Mean [4]: 11.5 min
Time to Fully Alert, Median [4]: 11.0 min
Time to Fully Recovered, Mean [4]: 25.6 min
Time to Fully Recovered, Median [4]: 21.0 min
Time to Ready for Discharge, Mean [4]: 40.4 min
Time to Ready for Discharge, Median [4]: 33.0 min
Number of Patients administered a total of 1 dose (initial plus supplemental) [5]: 15
Number of Patients administered a total of 2 doses (initial plus supplemental) [5]: 6
Number of Patients administered a total of 3 doses (initial plus supplemental) [5]: 0
Number of Patients administered a total of 4 doses (initial plus supplemental) [5]: 0
Number of Patients requiring 1 dose to allow start of procedure [5]: 21
Number of Patients requiring 1 supplemental dose to maintain sedation throughout the procedure [5]: 6
Number of Patients requiring 2 doses to allow start of procedure [5]: 0
Number of Patients requiring 2 supplemental doses to maintain sedation throughout the procedure [5]: 0
Number of Patients requiring 3 doses to allow start of procedure [5]: 0
Number of Patients requiring 3 supplemental doses to maintain sedation throughout the procedure [5]: 0
Number of Patients requiring 4 doses to allow start of procedure [5]: 0
Number of Patients requiring 4 supplemental doses to maintain sedation throughout the procedure [5]: 0
Time to Achieve Sedation (first Modified OAA/S score ≦4), Mean [5]: 2.4 min
Time to Achieve Sedation (first Modified OAA/S score ≦4), Median [5]: 2.0 min
Total Dose (mg) required during the entire procedure, Mean [5]: 1030.0 mg
Total Dose (mg) required during the entire procedure, Median [5]: 980.0 mg
Time to Procedure Start, Mean [5]: 2.9 min
Time to Procedure Start, Median [5]: 3.0 min
Time to Fully Alert, Mean [5]: 13.7 min
Time to Fully Alert, Median [5]: 12.0 min
Time to Fully Recovered, Mean [5]: 21.5 min
Time to Fully Recovered, Median [5]: 20.0 min
Time to Ready for Discharge, Mean [5]: 39.5 min
Time to Ready for Discharge, Median [5]: 37.0 min
Number of Patients administered a total of 1 dose (initial plus supplemental) [6]: 7
Number of Patients administered a total of 2 doses (initial plus supplemental) [6]: 1
Number of Patients administered a total of 3 doses (initial plus supplemental) [6]: 0
Number of Patients administered a total of 4 doses (initial plus supplemental) [6]: 0
Number of Patients requiring 1 dose to allow start of procedure [6]: 8
Number of Patients requiring 1 supplemental dose to maintain sedation throughout the procedure [6]: 1
Number of Patients requiring 2 doses to allow start of procedure [6]: 0
Number of Patients requiring 2 supplemental doses to maintain sedation throughout the procedure [6]: 0
Number of Patients requiring 3 doses to allow start of procedure [6]: 0
Number of Patients requiring 3 supplemental doses to maintain sedation throughout the procedure [6]: 0
Number of Patients requiring 4 doses to allow start of procedure [6]: 0
Number of Patients requiring 4 supplemental doses to maintain sedation throughout the procedure [6]: 0
Time to Achieve Sedation (first Modified OAA/S score ≦4), Mean [6]: 1.8 min
Time to Achieve Sedation (first Modified OAA/S score ≦4), Median [6]: 2.0 min
Total Dose (mg) required during the entire procedure, Mean [6]: 700.0 mg
Total Dose (mg) required during the entire procedure, Median [6]: 700.0 mg
Time to Procedure Start, Mean [6]: 3.6 min
Time to Procedure Start, Median [6]: 3.5 min
Time to Fully Alert, Mean [6]: 12.5 min
Time to Fully Alert, Median [6]: 12.5 min
Time to Fully Recovered, Mean [6]: 20.0 min
Time to Fully Recovered, Median [6]: 19.0 min
Time to Ready for Discharge, Mean [6]: 39.4 min
Time to Ready for Discharge, Median [6]: 36.5 min
Time within which most patients achieved sedation (Example 1B, most patients): 2 to 3 min
Number of patients who required ≦2 doses to initiate and maintain sedation to complete the procedure (Example 1B, of the 62 patients): 52
Percent of patients who required ≦2 doses to initiate and maintain sedation to complete the procedure (Example 1B, of the 62 patients): 83.9%
Patients who received alternative (rescue) medication and were considered treatment failures (Example 1B, of the 64 treated patients): two
